Data reported in the RNAGym collection of RNA variant scans (doi:10.7554/elife.90254).
The source gives no read counts; variants with many changes may rest on few reads.

B1: LINE1-full (parent)
chain: UACGUAGGUGGUUUUCCCCUGAUAGUGCUAAGGGGGCCUGGAAGUUUGGACUGGGCAGAGCUCAACACAGCGUGGCAAAGUGGCUGUGGCUAGACUGCCUCUCUGGAUUCCUCGUCACUCAGCAGGGCAUCUCUGAGAGAAAUGCC

Variants of: B1
Test: self-cleavage, relative activity (ratio to wild type); higher = more cleavage; in vitro, sequencing; the parent is a self-cleaving ribozyme
With UACGUAGGUGGUUUUCCCCUGAUAGUGCUAAGGGGGCCUGGAAGUUUGGACCGGGCAGAGCUCAACACAGCGUGGCAAAGUGGCUGUGGCUAGACUGCCUCUCUGGAUUCCUCGUCACUCAACAGGGCAUCUCUGAGAGUAAUGCC [U52C G122A A140U] the self-cleavage was 1.15. For UACGUAGGUGAUUUUCCCCUGAUAGUGCUAAGGGGGCCUGGAAGUUUGGACUGGGCAGAGCUCAACACAGCGUGGCAAAGCGGCUGUGGCUAGACUGCCUCUCCGGAUUCCUCGUCACUCAGCAGGGCAUCUCUGAGAGAGAUGCC [G11A U81C U104C A141G], the self-cleavage was 2.78. Work on UACGUAGGUGGUUUUCCCCUGAUAGUGCUAAGGGGGCCUGGAAGUUUGGACUGGGCAGAGCUUAACACAGCGUGGCAGAGUGGCUGUGGCUAGACUGCCUCUCUGGAUUCCUCGUCACUCAGCAGGGCAUCUCUGAGAGAAGUGCC [C63U A78G A142G] yielded a self-cleavage of 0.2. UACGUAGGUGGUUUUCCCCUGAUAGUGCUAAGGGGGCCUGGAAGUUUGGGCUGGGCAGAGCUCAACACAGCGUGGCAAAGUGGCUGUGGCUAGACUGCCCCUCUGGAUUCCUCGUCACUCAGCAGGGCAUCUUUGAGAGAAAUGCC [A50G U100C C133U] showed a self-cleavage of 2.24. With UACGUCGGUGGUUUUCCCCUGAAAGUGCUAAGGGGGCCUGGAAGUUUGGACUGGGCAGAGCUCAACACAGCGUGGCAAAGUGGCUGUGGCUAGACUGCCUCUCUGGAUUCCUCGUCACUCAGCAGGGCACCUCUGAGAGAAAUGCC [A6C U23A U130C] the self-cleavage was 1.26. UACGUAGGUGGUUCUCCCCUGAUAGUGCUAAGGGGGCCCGGAAGUUUGGACUGGGCAGAGCUCAACACAGCGUGGCAAAGUGGCUGUGGCUAGACUGCCUCUCUGGAUUCCUCGUCACUCUGCAGGGCAUCUCUGAGAGAAAUGCC [U14C U39C A121U] gave a self-cleavage of 1.59. Variant UACGUAGGCGGUUUUCCCCUGAUAGUGCUAAGGGGGCCUGGAAGUUUGGACUGGGCCGAGCUCAACACAGCGUGGCAAAGUGGCUGUGGCUAGACUGCCUCUCUGGAUUCCUCGUCACUCAGCUGGGCAUCUCUGAGAGAAAUGCC [U9C A57C A124U] has a self-cleavage of 0.37. Variant UACGUAGGUGGUUUUCCCCUGGUAGUGCUAAGGGGGCCUGGAAGUUUGGACUGGGCAGAGCUCAACACAGCGUGGCUAAGUGGCUGUGGCUAGACUGCCUCUCUGGAUUCCUCGUCACUCAGCAGGGCAUCUCUGAGAGAAAUGUC [A22G A77U C145U] has a self-cleavage of 0.65. UACGUAGGUGGUUUUCCCCUGUUAGUGCUAAGGGGGCCUGGAAGUUUGAGCUGGGCAGAGCUCAACACAGCGUGGCAAGGUGGCUGUGGCUAGACUGCCUCUCUGGAUUCCUCGUCACUCAGCAGGGCAUCUCUGAGAGAAAUGCC [A22U G49A A50G A79G] showed a self-cleavage of 0.52. UACGUAGGUGGUUUUCCCCUGAUAGUGCUAAGGGGGCCUGGGAGUCUGGACUGGGCAGAGCUCAACACAGCGUGGCAAAGUGGCUGUGGCUAGACUGCCUCUCUGGAUUCCUCGUCACUCAGCAGGGCGUCUCUGAGAGAAAUGCC [A42G U46C A129G] gave a self-cleavage of 0.42. Variant UACGUAGGUGGUUUUCCCCUGAUAGUGCUAAGGGGGCCUGGAAGUCUGGACUGGGCAGAGCUCAACACAGCGAGGCAAAGUGGCUAUGGCUAGACUGCCUCUCUGGAUUCCUCGCCACUCAGCAAGGCAUCUCUGAGAGAAAUGCC [U46C U73A G86A U115C G125A] has a self-cleavage of 0.11. UACGUAGGUGGUUUUCCCCUGAUAGUGCUAAGGGGGUCUGGAAGUUUGGACUGGGCAGAGCUCAACACAGCGUGGCAAAGUGGCUGUGGCUAGACUGCCUCUCUGGAUUCCUCGUCACUCAGCGGGGCAUCUCUGAGAGAAGUGCC [C37U A124G A142G] showed a self-cleavage of 0.58. UACGUAGGUGUUUUCCCCCUGAUAGUGCUAAGGGGGCCUGGAAGUUUGGACUGGGCAGAGCUCAACACGGCGUGGCAAAGUGGCUGUGGCUAGACUGCCUCUCUGGAUUCCUCGUCACUCAGCAGGGCAUCUCUGAGAGAAAUGCC [G11U U15C A69G] showed a self-cleavage of 0.55. Variant UACGUAGGUGGUUUUCCCCUGGUAGUGCUAAGGGGGCCUGAAAGUUUGGACUGGGCAGAGCUCAACACAGCGUGGCAAAGUGGCUGAGGCUAGACUGCCUCUCUGGAUUCCUCGUCACUCAGCAGGGCAUCUCUGAGAGAAAUGCC [A22G G41A U87A] has a self-cleavage of 0.05. For UACGUAGGUGGUUUUCCCCUGGUAGUGCUAAGGGGGCCUGGAAGUUUGGGCUGGGCAGAGCUCAACACAGCGUGGCGAAGUGGCUGUGGGUAGACUGCCUCUCUGGAUUCCUCGUCACUCAGCAGGGCAUCUCUGAGAGAAGUGCC [A22G A50G A77G C90G A142G], the self-cleavage was 0.09. UACGUAGGUGGCUUUCCCCUGAUAGUGCUAAGGGGGCCUGGAAGUUUGGACUGGGCAGAGCUCAACACAGCGUGGCAAAGUGGCUCUGGCUAGACUGCCUCUCUGGAUUCCUCGUCACUCAGCAGGGCAUCUCUGAGAGAGAUGCC [U12C G86C A141G] showed a self-cleavage of 0.1. Work on UACGUAGGCGGUUCUCCCCUGAUAGUGCUAAGGGGGCCUGGAAGUUUGGACUGGGCAGAGCUCAACACAGCGUGGCAAAGUGGCUGUGGCUAGACUGCCCCUCUGGAUUCCUCGUCACUCAGCAGGGCAUCUCUGAGAGAAAUGCC [U9C U14C U100C] yielded a self-cleavage of 1.41. For UACGUAGGUGGAUUUCCCCUGAUAGUGCUAAGGGGGCCUGGAAGUUUGGACUGGGCAGAGCUCAACACAGCGUGGCAAAGUGGCUGUGGCUAGACUGCCACUCUGGAUUCCUCGUCACUCAGCUGGGCAUCUCUGAGAGAAAUGCC [U12A U100A A124U], the self-cleavage was 0.77. In the case of UACGUAGGUGGUUCUCCCCUGAUAGUGCUAAGGGGGCCUGGAAGUUUGGACUGGGCAGAGCUCAACACAGCGUGGCAAAGUGGCAGAGGCUAGACUGCCUCUCUGGAUUCCUCGUCACUCAGCAGGGCAUCUCUGAGAGAAAUGCC [U14C U85A U87A], the self-cleavage is reported as 0.13. UACGUAGGUGUUUUUCCCCUGAUAGUGCUAAGGGGGCCUGGAAGUUUGGACUGGGCAGAGCUCAACACAGCGUGGCAAAGUGGCUGUGGCUAGACUGCCUCUCUGGAUUCCUCGUCACUCAGCUGGGCAUCUCUGUGAGAAAUGCC [G11U A124U A136U] gave a self-cleavage of 1.59.
